These results are taken from PubChem BioAssay AID284 (DTP/NCI, 2004).

Inconclusive results and toxic doses are left out. Some entries of the source have several records that differ or are many. Only these are listed. The source may hold further records. Results that share an entry are repeats in other runs, samples, wells, individuals or studies.

The test system of this test is BDF1 mice, L1210/MTX-resistant leukemia ip, survival T/C. The experiment in a line: NCI In Vivo Anticancer Drug Screen. Data for tumor model L1210 Leukemia resistant to Methotrexate; NSC 740 (intraperitoneal) in B6D2F1 (BDF1) mice. The conditions noted are these: endpoint: mean survival time, higher = longer survival. As for the experimental part:
The antitumor activity of compounds was measured in mice bearing transplantable tumors. Survival or tumor size were measured and the results are expressed as the measurement made in the treated group (T) divided by the measurement made in the vehicle treated control group (C). The tumor model used in this assay is L1210 Leukemia resistant to Methotrexate; NSC 740 (intraperitoneal) in B6D2F1 (BDF1) mice

Turning to `O=NN(CCCl)C(=O)NCCCl`, the T/C (dose: 6.25 mg/kg/injection, schedule: Q01DX010 (ip), vehicle: saline) was 118 % of control and 182 % of control.

`O=C(Nc1ccc(C2=NCCN2)cc1)c1cccc(C(=O)Nc2ccc(C3=NCCN3)cc2)c1`: under “dose: 25.0 mg/kg/injection, schedule: Q01DX Z (ip), vehicle: methylcellulose (MC)”, the T/C was 90 % of control and 159 % of control.

As for `O=C(Nc1ccc(C2=NCCCN2)cc1)c1ccc(C(=O)Nc2ccc(C3=NCCCN3)cc2)cc1`, the T/C (dose: 1.0 mg/kg/injection, schedule: Q01DX010 (ip), vehicle: other) is 106 % of control and 168 % of control.
